In the RNAGym collection of RNA variant scans (doi:10.7554/elife.90254):
The source gives no read counts; variants with many changes may rest on few reads.

B1: LINE1-mini (parent)
chain: GGCAGAGCUCAACACAGCGUGGCAAAGUGGCUGUGGCUAGACUGCC

Variants of: B1
Assay: self-cleavage, relative activity (ratio to wild type); higher = more cleavage; in vitro, sequencing; the parent is a self-cleaving ribozyme

Variant | self-cleavage
G22U G27A G29C C37U | 0.02
G22U G27A U28C | 0.91
G22U G27C G35C A39G G44U | 0.13
G22U G27U C46A | 2.61
G22U G29A G35A | 0.36
G22U G29U A41C C45A | 0.08
G22U G30U C31G A41G | 0.33
G22U G33A C45G | 0.12
G22U G33A U38G | 0.04
G22U G33C C46U | 0.03
G22U G33U G44A | 0.07
G22U G35U G40A | 0.17
G22U G35U G44C | 0.08
G22U G36C A39U C42G C46U | 0.05
G22U U28A G33A | 1.82
G22U U28C G30C | 0.86
G22U U28G A41C | 0.05
G22U U28G G36A | 0.03
G22U U32G G33C C46G | 0.09
C23A A24C G35U U38A | 0.01
C23A A24C U43G | 0
C23A A24G G27A C37A | 0.03
C23A A24U G27U U38A U43G C45U C46G | 0.02
C23A A24U G35U A41U | 0.05

Variant | self-cleavage
C23A A25C U43G G44U | 0.13
C23A A25U A26C | 1
C23A A25U G30U G33A G44U | 0.05
C23A A25U U28C | 0.47
C23A A26C U28G C45U | 1.5
C23A A26G A39U | 0.4
C23A A39U C45U | 0.78
C23A A41C C46G | 0.01
C23A C45U C46A | 0.92
C23A G27A U28C | 1.26
C23A G27C A39C | 0.07
C23A G27C C31A C42A | 0.06
C23A G27U G33A G35C C42A | 0.17
C23A G27U G44A | 0.33
C23A G29C G35U | 0.04
C23A G29C U43G C45U | 0.01
C23A G29U G33A U34A C46G | 0.07
C23A G29U G33C U34A A39U A41C | 0.03
C23A G29U U34C | 0.58
C23A G30A G40U C45A | 0.64
C23A G30C A41G | 0.09
C23A G30C G33U C45U | 0.09
C23A G33A G40C C42A C46U | 0.03
C23A G33U A41G C42U | 0.14

Variant | self-cleavage
C23A G33U C45G | 0.06
C23A G33U U34G G35A C45G | 0.03
C23A G35A C45U | 0.22
C23A U28A C31U | 0.54
C23A U28A C37U | 0.01
C23A U28A G29A | 0.37
C23A U28G C37G G44U | 0.04
C23A U28G G36U U43G G44A C46U | 0
C23A U32A U34A C46G | 0.02
C23A U32C C37U | 0.07
C23A U32G C42U C45G | 0.11
C23A U32G G33C | 0.05
C23A U34A G35U G36U | 0.17
C23A U38A A39C | 0.75
C23G A24C A26C G27U | 0.23
C23G A24G A41U G44U C45A | 0.06
C23G A24G C31U | 0.03
C23G A24U C31U | 0.15
C23G A26C G27U C45U | 0.46
C23G A26C G33U | 0.12
C23G A26G G35U | 0.03
C23G A26U G35U | 0.23
C23G A39C C42U C46U | 0.05
C23G C31A G40A | 0.03

Variant | self-cleavage
C23G C31U G36U U38A | 0.03
C23G C31U G44C | 0.05
C23G C31U U32G | 0.02
C23G C42U C45A | 1.03
C23G G27A C42A | 0.08
C23G G27U C37A | 0.01
C23G G27U C42G | 0.05
C23G G27U U32C | 0.08
C23G G27U U43A | 0.03
C23G G29A A39U | 0.29
C23G G29C A39U | 0.02
C23G G29C G36U G44A | 0.01
C23G G29U A41U | 0.69
C23G G29U G30A | 2.34
C23G G29U G40U | 0.14
C23G G30C G40U C42U | 0.02
C23G G33U U34A | 0.06
C23G U28A G44A | 0.17
C23G U28G U38A | 0.09
C23G U32A U38A G44U | 0.03
C23G U32C U34G | 0.04
C23G U34C G40C | 0.02
C23G U43G G44U | 1.42
C23U A24G U43G | 0

Variant | self-cleavage
C23U A24U G33A | 0.15
C23U A24U U32G | 0.84
C23U A25C G29A C42A | 0.05
C23U A25U C37G C46U | 0.01
C23U A25U C37G G44U | 0.13
C23U A26C U32C U38A C46A | 0
C23U A26U A39C | 0.61
C23U A26U G27U A39G | 0.05
C23U C31U U32C A39G | 0.02
C23U C37U U38C | 0.03
C23U C42G C45A | 0.04
C23U G27A C42U C46G | 0.09
C23U G27A G33U A39G | 0.24
C23U G29A C31A G44C | 0.17
C23U G29U G30U C37U | 0.08
C23U G30U U32G U43A | 0.03
C23U G33A G36A C37G | 0.03
C23U G35A C45A | 0.1
C23U G35U U43C | 1.24
C23U G36A C37U A39G G40C | 0.04
C23U G36U A41U G44C | 0.02
C23U U28A A39G | 0.03
C23U U38G A41U | 0.02
C23U U38G C42A U43G | 0.04

Variant | self-cleavage
A24C A25C U34G U43C | 0
A24C A26G G29C G30A C46A | 0.09
A24C A39G C42U | 0.07
A24C C31A U43A | 0.05
A24C C31U G33A | 0.03
A24C G27C A41U | 0.09
A24C G29C G44A C46A | 0.04
A24C G29C G44U | 0.16
A24C G30A C42A | 0.16
A24C G30A U34G G44A | 0.03
A24C G30U G35U G40A | 0.08
A24C G33A U34A | 0.06
A24C G36C A41U C46G | 0.07
A24C G44A C45U | 0.01
A24C U28A G35A C42U U43G | 0.02
A24C U32A C37G G40U | 0.01
A24C U38C G44U | 0.07
A24C U38G G40U | 0.02
A24G A25G C31G | 0.01
A24G A25G G29U G30C U38G A39G C45G | 0
A24G A26G G33C | 0.05
A24G A26U G27A C31G | 0.04
A24G A26U G33C C42A | 0.03
A24G C31A U32C | 0

Variant | self-cleavage
A24G C31G G36U U38C C45U | 0.02
A24G C31U G36A | 0.06
A24G C37A C45A | 0.06
A24G C37A U43C | 0.07
A24G C37U U38G G44U | 0.05
A24G C42U G44C | 0.06
A24G G27A A39C G40C | 0.02
A24G G27A C31G | 0.11
A24G G27A G29A C31U | 0.85
A24G G27C U28C G44A | 0.51
A24G G29A G36U U43C | 0.02
A24G G29C C31A G33A A39U | 0.04
A24G G29U G36A | 0.81
A24G G30A C46A | 1.22
A24G G30A U38G | 0.02
A24G G30C G40C C42A | 0
A24G G33A G44U | 0.13
A24G G33A U34A G40A C46G | 0.16
A24G G33C C37U | 0.05
A24G G36C G40U | 0
A24G G40A C45G | 0.07
A24G G44U C46A | 0.08
A24G U28A U43G | 0
